Experimental data taken from PubChem BioAssay AID624418 (National Center for Advancing Translational Sciences (NCATS), 2012).
Out of some 410,000 compounds screened, about 530 (0.13%) were called active. Inconclusive results, whose numbers are uncertain, are shown with a selection of clear calls. Calls follow the shape of the dose curve; as a rule, active = well fitted inhibition curve with a large enough effect; inconclusive = small, poorly fitted or top-dose-only effect, or another doubt; inactive = no such curve, though single readings can be large or run the other way. Potencies beside an inconclusive call are fits to weak or partial responses and may not hold up.
% is scaled to controls: 0 for no effect and ±100 for the full control effect; potency is read from the fitted curve at half-maximal effect.

Experiment: qHTS of GLP-1 Receptor Inverse Agonists: Cytotox Screen
Conditions: HEK293 cAMP-luciferase reporter cells, luminescence, 24 h; activity change, negative = inhibition: at 38.3 µM (top of the series) unless noted
Method in brief: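 Compound-treated cells are incubated 24 hr at 37 deg C under 5% CO2 after a 12 hour attachment period, then luciferase detection reagent is added and luminescence is measured following 12 min at room temperature; lowered signal indicates toxicity.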
In the case of `Cc1ccc(NCc2nc3ccccc3n2C)cc1C`, the Potency is reported as “inactive”. With `COc1cc(OC)nc(-n2ncc(Br)c(Br)c2=O)n1` the Potency was active: 3.16 µM. With `Cn1[nH]c(-c2ccccc2)c(/C=N/O)c1=O` the Potency was “inactive”. In the case of `CCCN1C(=O)C(O)(CC(=O)c2ccc(OC)c(OC)c2)c2ccccc21` (stereo unspecified), the Potency is reported as “inactive”. With `C/C(=N\Nc1ccc(S(=O)(=O)N2CCCCC2)cn1)c1ccc(O)cc1` the Potency was inconclusive: 10 µM [inhibitor, single point]. For `CCn1c(CNc2ccc(Cl)cc2)nnc1SCc1ccccc1`, the Potency was “inactive”. For `Fc1ccc(-[n+]2nc(Nc3ccccc3)sc2-c2c(Cl)cccc2Cl)cc1`, the Potency was inconclusive: 11.2 µM [inhibitor, single point]. In the case of `COc1cccc(CCNC(=O)Cn2c(-c3cccs3)cc3ccccc32)c1`, the Potency is reported as “inactive”. In the case of `COc1ccc(NC(=O)c2ccc(F)cc2)cc1S(=O)(=O)Nc1cc(C)ccc1Br`, the Potency is reported as inconclusive: 10 µM [inhibitor, partial curve, poor fit]. For `CC(C)Cn1c(-c2ccc(F)cc2)n[nH]c1=S`, the Potency was inconclusive: 10 µM [inhibitor, single point]. With `O=C(Oc1ccccc1)c1cc(O)c(O)c(O)c1` the Potency was “inactive”. In the case of `CC1(c2cccc(Br)c2)NC(=O)N(CC(=O)Nc2ccc(N3CCCCC3)cc2)C1=O` (stereo unspecified), the Potency is reported as inconclusive: 20 µM [inhibitor, partial curve, poor fit]. For `Cc1ccc(C(=O)CC(=O)COc2ccc(Cl)cc2)cc1`, the Potency was inconclusive: 28.2 µM [inhibitor, single point]. With `CCOC(=O)C1CCCN(C(=O)Cc2c(C(=O)O)[nH]c3ccccc23)C1` (stereo unspecified) the Potency was “inactive”. In the case of `CC(=O)Nc1cccc(-c2ccnc3c2CC(C)(C(=O)NCCC(F)(F)F)O3)c1` (stereo unspecified), the Potency is reported as inconclusive: 2.24 µM [inhibitor, full curve]. In the case of `Cc1cc(-n2c(SCC(=O)NCc3ccccc3)nc3ccsc3c2=O)ccc1Cl`, the Potency is reported as “inactive”. In the case of `COc1cc(O)sc1C=Nc1ccc(Cl)cc1`, the Potency is reported as inconclusive: 3.55 µM [inhibitor, full curve]. For `Cc1ccc2c(c1)c(=O)c1ccccc1n2CCCC(=O)Nc1ccc(C)c(F)c1`, the Potency was “inactive”. For `Cc1ccc(C)c(OCCCN2CCCC2)c1`, the Potency was “inactive”. In the case of `CN1CCCN(C(=O)/C=C/c2ccc(Cl)cc2Cl)CC1`, the Potency is reported as inconclusive: 8.91 µM [inhibitor, partial curve, poor fit]. For `COc1ccc(C(=O)O/N=C(\N)c2ccccc2)cc1OC`, the activity change, negative = inhibition was inconclusive: -36.5% [inhibitor]. In the case of `CCC(Oc1ccccc1OC)C(=O)N1CC(=O)Nc2ccccc21` (stereo unspecified), the Potency is reported as inconclusive: 3.16 µM [inhibitor, partial curve, poor fit]. In the case of `S=C(NCCc1ccccc1)N/N=C/c1c(Cl)cccc1Cl`, the Potency is reported as inconclusive: 28.2 µM [inhibitor, single point]. For `COc1ccc(C2CC(=O)C3=C(C2)Nc2ccccc2N(C(=O)C2CC2)C3c2cccnc2)cc1OC` (stereo unspecified), the Potency was “inactive”. In the case of `Cc1cc(C)c(/C=C(\C#N)S(=O)(=O)c2ccccc2)[nH]1`, the Potency is reported as inconclusive: 25.1 µM [inhibitor, single point]. With `Cc1ccc(NC(=O)CSc2n[nH]c(C)c2[N+](=O)[O-])cc1C` the Potency was inconclusive: 14.1 µM [inhibitor, single point]. In the case of `COc1ccc(NC(=O)c2nc[nH]c2C(=O)N[C@@H](CC(C)C)C(=O)OC(C)(C)C)cc1`, the Potency is reported as inconclusive: 28.2 µM [inhibitor, single point]. For `O=C(CN1CCN(CC(=O)Nc2ccc(OCc3ccccc3)cc2)CC1)Nc1ccc(F)cc1`, the Potency was “inactive”. With `O=C(Cc1ccc(Br)cc1)N1CCN(c2ccc(F)cc2)CC1` the Potency was “inactive”. For `O=C(COC(=O)Cc1ccc(Br)cc1)NCC1CCCO1` (stereo unspecified), the Potency was “inactive”. With `CCOC(=O)CSc1c(-c2cccs2)[nH]c2ccccc12` the Potency was inconclusive: 11.2 µM [inhibitor, partial curve, poor fit]. In the case of `Cc1[nH]nc2ncc(C(=O)c3ccccc3O)cc12`, the Potency is reported as “inactive”. For `COC1=CC(=O)OC(c2cccc(Cl)c2)C1` (stereo unspecified), the Potency was “inactive”. With `CC(C)=CCN1CCN(Cc2cnc(N3CCCC3)s2)CC1CCO` (stereo unspecified) the Potency was inconclusive: 20 µM [inhibitor, single point]. For `COc1ccc(OC)c(N(CC(=O)N2CCCC2)S(=O)(=O)c2ccc(OC)c(OC)c2)c1`, the Potency was inconclusive: 28.2 µM [inhibitor, single point]. In the case of `COc1cccc(Cn2cnc3c(NS(=O)(=O)c4cccc(Cl)c4Cl)c(C)c(C)cc32)c1`, the Potency is reported as inconclusive: 14.1 µM [inhibitor, single point]. In the case of `COc1ccc(S(=O)(=O)c2c(Nc3c(C)cccc3C)sc(C(=O)c3ccc4c(c3)OCO4)c2N)cc1`, the Potency is reported as inconclusive: 2.82 µM [inhibitor, partial curve, poor fit]. In the case of `O=C(NC(=S)NN1CCOCC1)c1cc(Br)ccc1Cl`, the Potency is reported as inconclusive: 28.2 µM [inhibitor, single point]. In the case of `COC(=O)c1c(NC(=O)/C=C/C(=O)O)sc(Cc2ccccc2)c1C`, the Potency is reported as inconclusive: 28.2 µM [inhibitor, single point]. With `CCNC(=S)NNC(=O)CSc1nc2ccccc2n1C` the Potency was inconclusive: 3.98 µM [inhibitor, full curve]. In the case of `O=C1ON=C(c2ccccc2)/C1=C/c1ccc(O)c(O)c1`, the Potency is reported as inconclusive: 8.91 µM [inhibitor, partial curve, poor fit]. With `c1ccc(CN2CCC(Nc3nc(-c4ccccc4)nc4ccccc34)CC2)cc1` the Potency was inconclusive: 20 µM [inhibitor, single point]. For `CN1CCc2c1nc1ccccc1c2N=C1CCCN1Cc1ccccc1`, the Potency was inconclusive: 22.4 µM [inhibitor, single point]. For `C=CCNC(=O)c1ccc(CSc2nc3ccccc3s2)cc1`, the Potency was inconclusive: 11.2 µM [inhibitor, partial curve, poor fit]. In the case of `CCn1nc(C(=O)Nc2ccc(S(=O)(=O)Nc3ncccn3)cc2)c2ccccc2c1=O`, the Potency is reported as “inactive”. With `CCOC(=O)c1ccccc1NC(=O)COC(=O)c1cc([N+](=O)[O-])ccc1N1CCOCC1` the Potency was inconclusive: 31.6 µM [inhibitor, single point].
